Assay results from PubChem BioAssay AID1466 (National Center for Advancing Translational Sciences (NCATS), 2008).
The campaign covered roughly 200,000 compounds. About 10 (0.005%) were called active. This list was built around the results that the source calls inconclusive (neither active nor inactive); the mix of calls is not that of the screen. Calls follow the shape of the dose curve; as a rule, active = well fitted inhibition curve with a large enough effect; inconclusive = small, poorly fitted or top-dose-only effect, or effect the other way, or another doubt; inactive = no such curve, though single readings can be large or run the other way. Potencies of inconclusive entries are left out as doubtful fits.

Target: Lysosomal alpha-glucosidase (Homo sapiens) (UniProt P10253)
Test: qHTS Assay for Inhibitors of Human alpha-Glucosidase as a Potential Chaperone Treatment of Pompe Disease;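 as to activity change, negative = inhibition: plate controls were uninhibited enzyme wells for no effect and no-enzyme background for full effect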
Details: purified human GAA, 4-MU-alpha-glucoside fluorescence; activity change, negative = inhibition: at 76.9 µM (top of the series) unless noted
Outline: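 Human alpha-glucosidase, 4 nM, pre-mixed with test compounds before 400 uM 4-methylumbelliferyl substrate; 20 min room temperature at pH 5.0. Fluorescence read after pH 10 stop; AC50 values from Hill-equation fits.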
Potency is read from the fitted curve at half-maximal effect; tags tell the direction and shape of the fitted curve.

**Q.** For `COc1ncccc1C(=O)NCC(CC(=O)O)c1ccccc1` (centres undefined), which Potency is on record?
**A.** The Potency was inconclusive [inhibitor, single point].

**Q.** With `COc1ccc(Nc2ncc(C(=O)N3CCC4(CC3)OCCO4)c3ccccc23)cc1` as the compound, how does the Potency read?
**A.** Its Potency is inconclusive [inhibitor, partial curve].

**Q.** For `Clc1ccccc1CNC1CN2CCC1CC2` (centres undefined), which Potency is on record?
**A.** The Potency was inconclusive [inhibitor, single point].

**Q.** Which Potency does the source give for `O=c1cccc2n1CC1CC2CN(c2nc(N3CCCCC3)nc(N3CCCCC3)n2)C1` (centres undefined) here?
**A.** Its Potency is inconclusive [inhibitor, single point].

**Q.** Which activity change, negative = inhibition does the source give for `Nc1c(C(=O)NCc2ccco2)c2nc3ccccc3nc2n1Cc1ccccc1` here?
**A.** Its activity change, negative = inhibition is inconclusive: 30.1% [activator].

**Q.** For `CCN(CC)C(=O)c1ccc2c(c1)C1C(Cl)C(Sc3ccccc3[N+](=O)[O-])CC1C(C(=O)O)N2` (centres undefined), which Potency is on record?
**A.** Its Potency is inconclusive [inhibitor, single point].

**Q.** For `Clc1cccc(/C=N\Nc2nccs2)c1`, which Potency is on record?
**A.** Its Potency is inconclusive [inhibitor, partial curve, poor fit].

**Q.** With `CN(CC(=O)N1CCc2ccccc21)S(=O)(=O)c1cccs1` as the compound, how does the Potency read?
**A.** Its Potency is inconclusive [inhibitor, single point].

**Q.** `CC1(C)CN=C(NCc2ccccc2Cl)S1` was tested. Which Potency did it give?
**A.** The Potency was inconclusive [inhibitor, single point].

**Q.** How did the Potency turn out when `CCCNC(=O)N1C2CCC1CC(O)(c1cccnc1)C2` (centres undefined) was run?
**A.** Its Potency is inconclusive [inhibitor, single point].

**Q.** For `CCCCCCC(=O)c1c(O)n(-c2ccccc2OC)c(=O)[nH]c1=O`, which Potency is on record?
**A.** The Potency was “inactive”.

**Q.** How did the Potency turn out when `Cc1nc2ccc(Cl)cn2c1P(=S)(N1CCOCC1)N1CCOCC1` was run?
**A.** Its Potency is “inactive”.

**Q.** `Oc1ccc2ccccc2c1CN1CC=C(c2ccccc2)CC1` was tested. Which Potency did it give?
**A.** The Potency was inconclusive [inhibitor, single point].

**Q.** Which Potency does the source give for `CCCNC(=O)c1c(N)n(CC2CCCO2)c2nc3ccccc3nc12` (centres undefined) here?
**A.** Its Potency is inconclusive [activator, partial curve].

**Q.** With `COc1ccc([N+](=O)[O-])cc1N=Cc1c(O)n(CCc2ccccc2)c(=O)n(C(C)C)c1=O` as the compound, how does the Potency read?
**A.** The Potency was inconclusive [inhibitor, full curve].

**Q.** `O=C1NC(=O)C(CCc2ccncc2)(C2CCCCC2)C(=O)N1` was tested. Which Potency did it give?
**A.** Its Potency is inconclusive [inhibitor, single point].

**Q.** Which activity change, negative = inhibition does the source give for `O=C(c1cccc(Cl)c1)C1CCCN(Cc2ccon2)C1` (centres undefined) here?
**A.** The activity change, negative = inhibition was inconclusive: 17.2% [activator].

**Q.** How did the Potency turn out when `COc1ccc(C2SCC(=O)Nc3c2c(C)nn3-c2ccccc2)cc1OC` (centres undefined) was run?
**A.** The Potency was “inactive”.

**Q.** How did the Potency turn out when `Cc1cc2c(C(C)C)c(O)c(O)c(C=O)c2c(O)c1-c1c(C)cc2c(C(C)C)c(O)c(O)c(C=O)c2c1O` was run?
**A.** Its Potency is inconclusive [inhibitor, partial curve].

**Q.** With `CCSc1cc(C2C(C#N)=C(N)Oc3n[nH]c(C)c32)c(C)o1` (centres undefined) as the compound, how does the Potency read?
**A.** Its Potency is “inactive”.

**Q.** With `CC(=O)OC1(c2ccccc2)CCN(C)C(C)C1C` (centres undefined) as the compound, how does the Potency read?
**A.** The Potency was inconclusive [inhibitor, single point].

**Q.** `CC(C)c1ccc(-n2c(O)c(/C=N/NC(=O)c3ccncc3)c(=O)[nH]c2=O)cc1` was tested. Which Potency did it give?
**A.** Its Potency is inconclusive [inhibitor, single point].

**Q.** For `CC12CC(c3ccccc3O1)C(C(=O)OCc1ccccc1)C(=O)N2` (centres undefined), which Potency is on record?
**A.** Its Potency is inconclusive [inhibitor, single point].

**Q.** For `O=C(Nc1ccccc1)Oc1ccccc1`, which activity change, negative = inhibition is on record?
**A.** Its activity change, negative = inhibition is inconclusive: -20.2% [inhibitor].

**Q.** How did the Potency turn out when `O=C(CN1CCN(S(=O)(=O)c2ccc3ccccc3c2)CC1)NC(=O)NC1CCCCC1` was run?
**A.** The Potency was inconclusive [inhibitor, single point].

**Q.** `O=P(c1ccccc1)(c1nc2ccccc2s1)N1CCOCC1` (centres undefined) was tested. Which Potency did it give?
**A.** Its Potency is inconclusive [inhibitor, single point].

**Q.** With `COc1cc(/C=C/C(=O)c2c(O)n(CCc3ccccc3)c(=O)[nH]c2=O)ccc1O` as the compound, how does the Potency read?
**A.** The Potency was inconclusive [inhibitor, single point].

**Q.** `COC(=O)c1ccc(C(=O)OC)c(NC(=O)Oc2ccccc2)c1` was tested. Which Potency did it give?
**A.** Its Potency is inconclusive [activator, partial curve].

**Q.** With `CCC(C)N1C(=O)/C(=C\c2cnc(N(C)C)nc2)C(=O)NC1=S` (centres undefined) as the compound, how does the Potency read?
**A.** The Potency was inconclusive [inhibitor, single point].

**Q.** `Cc1nc2cc(-c3cccc(F)c3)nn2c(C)c1CCC(=O)N1CCC2(CC1)OCCO2` was tested. Which Potency did it give?
**A.** The Potency was inconclusive [inhibitor, single point].

**Q.** For `CN(C)c1nc(-c2ccccc2)[n+](C)s1`, which Potency is on record?
**A.** The Potency was inconclusive [inhibitor, single point].

**Q.** `ON1C2CCCCC2N(O)C1c1ccccc1` (centres undefined) was tested. Which Potency did it give?
**A.** Its Potency is inconclusive [inhibitor, full curve, poor fit].

**Q.** `O=C(O)CCn1cc(C=C2C(=O)NC(=S)NC2=O)c(-c2cccc(Br)c2)n1` was tested. Which activity change, negative = inhibition did it give?
**A.** The activity change, negative = inhibition was inconclusive: 15.1% [activator].

**Q.** With `O=C(c1ccccc1)N1CCC2(CC1)OCCO2` as the compound, how does the activity change, negative = inhibition read?
**A.** The activity change, negative = inhibition was inconclusive: -17% [inhibitor].

**Q.** How did the Potency turn out when `CCCOc1ccc(CC2CCC(=O)NC2=O)cc1` (centres undefined) was run?
**A.** Its Potency is inconclusive [inhibitor, full curve].

**Q.** Which Potency does the source give for `O=c1c(C=Nc2cccnc2Cl)c(O)n(CCCCl)c(=O)n1C1CCCCC1` here?
**A.** Its Potency is inconclusive [inhibitor, full curve].

**Q.** `CCC(C)N1C(=O)NC(=O)C2(Cc3c(ccc4ccccc34)N(C)C2)C1=O` (centres undefined) was tested. Which Potency did it give?
**A.** Its Potency is inconclusive [inhibitor, single point].

**Q.** How did the activity change, negative = inhibition turn out when `C/C(Cl)=C/CC1(CN2CCCC2=O)C(=O)NC(=O)NC1=O` was run?
**A.** Its activity change, negative = inhibition is inconclusive: 18.8% [activator].

**Q.** Which activity change, negative = inhibition does the source give for `CCC(C)C12CN3CCN(CC(C)(C3)C1O)C2` (centres undefined) here?
**A.** Its activity change, negative = inhibition is inconclusive: 11.4% [activator].

**Q.** With `CCCCCn1c(N)c(C(=O)NCCN2CCOCC2)c2nc3ccccc3nc21` as the compound, how does the Potency read?
**A.** The Potency was inconclusive [activator, partial curve].

**Q.** Which Potency does the source give for `Cc1cccn2c(=O)c3cc(C(=O)N4CCC5(CC4)OCCO5)n(C)c3nc12` here?
**A.** The Potency was inconclusive [activator, full curve, poor fit].

**Q.** For `O=c1c(C=NCCN2CCNCC2)c(O)n(C2CCCCC2)c(=O)n1C1CCCCC1`, which Potency is on record?
**A.** Its Potency is inconclusive [inhibitor, partial curve].

**Q.** For `CCCCn1c(O)c(C(C)=NCCc2ccccc2)c(=O)[nH]c1=O`, which Potency is on record?
**A.** Its Potency is inconclusive [activator, single point].

**Q.** With `CN1CCc2c(C#N)c(Cl)nc(Cl)c2C1` as the compound, how does the Potency read?
**A.** The Potency was inconclusive [activator, partial curve].

**Q.** How did the Potency turn out when `CCOP(=O)(OCC)C(NC(=O)CC(C)C)C(Cl)(Cl)Cl` (centres undefined) was run?
**A.** Its Potency is inconclusive [activator, single point].

**Q.** With `CN(C)C(=O)Oc1ccc(Cl)c2cccnc12` as the compound, how does the Potency read?
**A.** Its Potency is inconclusive [inhibitor, single point].

**Q.** Which Potency does the source give for `Cc1ccc(N2C(=O)NC(=O)C3(Cc4ccccc4N4CCN(c5ccccc5)CC43)C2=O)cc1` (centres undefined) here?
**A.** Its Potency is inconclusive [inhibitor, full curve, poor fit].

**Q.** For `COc1cccc(OCC(=O)N2CCN(C)CC2)c1`, which Potency is on record?
**A.** The Potency was inconclusive [inhibitor, single point].

**Q.** For `C=CCNC(=O)c1c(N)n(Cc2ccco2)c2nc3ccccc3nc12`, which Potency is on record?
**A.** Its Potency is inconclusive [activator, partial curve].

**Q.** With `CN(C)[C@@H]1C(=O)C(C(N)=O)=C(O)[C@@]2(O)C(=O)C3=C(O)c4c(O)cccc4[C@@](C)(O)[C@H]3[C@H](O)[C@@H]12` as the compound, how does the Potency read?
**A.** The Potency was inconclusive [inhibitor, partial curve].

**Q.** With `COC(=O)c1c(N)n(Cc2ccc(OC)cc2)c2nc3ccccc3nc12` as the compound, how does the Potency read?
**A.** The Potency was inconclusive [activator, partial curve].

**Q.** `CCC(=NCCCN1CCOCC1)c1c(O)n(Cc2ccccc2)c(=O)[nH]c1=O` was tested. Which Potency did it give?
**A.** The Potency was inconclusive [inhibitor, single point].

**Q.** Which Potency does the source give for `CN1C2CCC1CC(OC(=O)c1cc(Cl)cc(Cl)c1)C2` (centres undefined) here?
**A.** The Potency was inconclusive [inhibitor, single point].

**Q.** Which Potency does the source give for `COCCOC(=O)c1c(N)n(Cc2ccccc2)c2nc3ccccc3nc12` here?
**A.** The Potency was inconclusive [activator, partial curve].

**Q.** Which Potency does the source give for `COC(=O)[C@@H]1[C@@H](C(=O)OC)C2(c3ccccc3-c3ccccc32)N(c2ccc(Cl)cc2)N1C#N` here?
**A.** Its Potency is inconclusive [inhibitor, full curve, poor fit].

**Q.** With `Cc1ccc(C)c(NC2=NCCCS2)c1` as the compound, how does the Potency read?
**A.** Its Potency is inconclusive [inhibitor, single point].

**Q.** For `CCOP(=O)(OCC)c1nc(-c2ccccc2)oc1NCc1ccccc1`, which Potency is on record?
**A.** The Potency was inconclusive [inhibitor, full curve, poor fit].

**Q.** For `CCOC(=O)C(O)(c1ccc(NC(=O)NC2CCCCC2)cc1)C(F)(F)F` (centres undefined), which Potency is on record?
**A.** The Potency was inconclusive [inhibitor, full curve, poor fit].

**Q.** With `CCOC(=O)c1c(N)n(Cc2ccccc2)c2nc3ccccc3nc12` as the compound, how does the Potency read?
**A.** The Potency was inconclusive [activator, full curve].

**Q.** `CCN(CC)c1ccc(C=C2C(=O)N(C)C(=S)N(C)C2=O)o1` was tested. Which Potency did it give?
**A.** Its Potency is “inactive”.

**Q.** With `CCN1C(=O)NC(=O)/C(=C/c2cc(C)n(-c3sc(C)c(C)c3C#N)c2C)C1=O` as the compound, how does the Potency read?
**A.** The Potency was inconclusive [activator, single point].

**Q.** How did the Potency turn out when `CCOC(=O)c1c(C)[nH]c(C(=O)C(Cc2ccccc2)N(C)C)c1C` (centres undefined) was run?
**A.** Its Potency is inconclusive [inhibitor, single point].

**Q.** For `Nc1ccc(Oc2cccc(Oc3ccc(N)cc3)c2)cc1`, which Potency is on record?
**A.** The Potency was inconclusive [inhibitor, partial curve, poor fit].

**Q.** Which Potency does the source give for `CCOC(=O)C1SC2(C(F)(F)C(F)F)CC1(O)c1c(c(OC)c3occc3c1OC)O2` (centres undefined) here?
**A.** Its Potency is inconclusive [inhibitor, partial curve, poor fit].
